Laboratory results taken from PubChem BioAssay AID1645882 (National Center for Advancing Translational Sciences (NCATS), 2021).
Screen size: about 16,000 compounds; about 120 (0.75%) were called active. About 4% were inconclusive and are not listed. Calls follow the shape of the dose curve; as a rule, active = well fitted inhibition curve with a large enough effect; inconclusive = small, poorly fitted or top-dose-only effect; inactive = no such curve, though single readings can be large or run the other way. The list shows a part of the results.

Each molecule was assayed against Rap guanine nucleotide exchange factor 3 (Homo sapiens) (UniProt O95398) (assay: Validation qHTS for antagonist of cAMP-regulated guanine nucleotide exchange factor 3 (EPAC1)). Settings: EPAC1 Rap1B-BODIPY-GDP exchange, fluorescence; series mostly up to 150 µM; activity change, negative = inhibition: at the top concentration.
Sequence of UniProt O95398 (O95398 whole entry, looked up): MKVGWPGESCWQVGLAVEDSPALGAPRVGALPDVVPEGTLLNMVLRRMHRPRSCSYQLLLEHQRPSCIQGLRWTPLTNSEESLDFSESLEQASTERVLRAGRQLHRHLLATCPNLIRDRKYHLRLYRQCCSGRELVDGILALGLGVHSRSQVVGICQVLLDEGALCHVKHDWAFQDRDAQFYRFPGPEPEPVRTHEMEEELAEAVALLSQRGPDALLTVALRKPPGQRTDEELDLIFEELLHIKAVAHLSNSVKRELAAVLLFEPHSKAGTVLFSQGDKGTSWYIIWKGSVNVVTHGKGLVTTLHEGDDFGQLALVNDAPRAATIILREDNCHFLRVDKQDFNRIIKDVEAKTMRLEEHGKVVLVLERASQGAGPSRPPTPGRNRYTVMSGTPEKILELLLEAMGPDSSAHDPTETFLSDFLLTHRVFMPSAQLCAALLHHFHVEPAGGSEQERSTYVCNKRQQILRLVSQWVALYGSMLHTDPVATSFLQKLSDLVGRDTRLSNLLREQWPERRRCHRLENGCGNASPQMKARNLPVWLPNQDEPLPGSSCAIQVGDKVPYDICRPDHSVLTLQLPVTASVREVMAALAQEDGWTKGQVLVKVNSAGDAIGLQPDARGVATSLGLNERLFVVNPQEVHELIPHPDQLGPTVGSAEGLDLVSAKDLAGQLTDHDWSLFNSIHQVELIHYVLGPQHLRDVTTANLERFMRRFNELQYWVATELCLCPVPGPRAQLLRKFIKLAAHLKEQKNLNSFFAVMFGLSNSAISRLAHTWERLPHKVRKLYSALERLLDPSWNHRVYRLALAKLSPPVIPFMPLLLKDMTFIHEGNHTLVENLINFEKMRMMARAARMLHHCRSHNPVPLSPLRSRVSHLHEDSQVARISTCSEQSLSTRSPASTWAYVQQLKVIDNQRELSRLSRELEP
Outline: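 Nucleotide exchange followed as fluorescence loss when BODIPY-GDP leaves Rap1B (480 nm excitation, 540 nm emission), read at 5 min intervals over 30 min. Reaction: 100 nM EPAC1, 250 nM RAP1B-BODIPY-GDP, 50 uM GDP; ATA and DMSO define normalization.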
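Also: plate controls were DMSO for no effect and ATA control for full effect; nearly all actives have a fitted effect of over 75% in size.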

Activity change, negative = inhibition, inactive:
O=C1CCCC2[C@@H]3CCC[N@+]4([O-])CCC[C@H](CN12)C34 (stereo partly specified) 19.8%, C[N+]1(C)CCN(CC(O)(c2ccccc2)C2CCCCC2)CC1 (stereo unspecified) 1.98%, COc1cc(=O)n2c(c1C(=O)NC(C)c1ccco1)CCN(C(=O)c1cc(C)cc(C)c1)CC2 (stereo unspecified) -3.94%, FC(F)(F)c1ccccc1-c1cncnc1NCc1ccccc1 6.24%, COc1cc(O)c(C(=O)c2ccccc2)cc1O -2.11%, CCn1cc(CN2Cc3ccccc3OC(c3ccccc3OC)C2)c(C)n1 (stereo unspecified) -5.33%, COc1ccc2[nH]cc(CCNc3ncnc4ccc(-c5c(C)noc5C)cc34)c2c1 -7.06%, O.O=C([O-])CC([S-])C(=O)[O-].[Au+].[Na+].[Na+] (stereo unspecified) 31.1%, Cn1c(=O)c(-c2ccccc2)nc2cnc(Oc3ccccc3)nc21 3.53%, COc1ccc(CN2CCC3(CCC(CNC(=O)C4CCCO4)O3)CC2)c(C)c1C (stereo unspecified) 7.49%, Cc1noc(C)c1C(=O)N1CCC2(CCCN(C(c3ccccc3)c3ccccc3)C2)CC1 -17.5%, O=C(O)CCc1cc(I)c(O)c(I)c1 24.3%, Cc1ccc(C(C)C)c(O)c1 12.2%, COCc1ccc(CN2CCOc3c(O)cc(-c4cc(C)c5ccc(F)cc5n4)cc3C2)o1 -9.59%, CC/C=C\C/C=C\C/C=C\CCCCCCCC(=O)O, COc1c2c(cc3c1C(CC(O)C(C)C)N(C)CC3)OCO2 (stereo unspecified) 22.4%, CC(=O)O[C@]1(C(C)=O)CC[C@H]2[C@@H]3C=C(C)C4=CC(=O)CC[C@]4(C)[C@H]3CC[C@@]21C 11.6% [at 75.8 µM], C=C1[C@H](CO)[C@@H](O)C[C@@H]1n1cnc2c(=O)[nH]c(N)nc21 10.5%, CN(C)c1ncc2nc(-c3ccc(F)cc3)c(=O)n(Cc3cccs3)c2n1 3.15%, CCNC(=O)NCc1cccc(Cl)c1 4.76%, NC[C@H]1O[C@H](O[C@H]2[C@H](O)[C@@H](O[C@H]3O[C@H](CO)[C@@H](O)[C@H](N)[C@H]3O)[C@H](N)C[C@@H]2N)[C@H](N)[C@@H](O)[C@@H]1O, CS(=O)(=O)N1CCC2(CCCN(c3cccc(-c4ccccc4)c3)C2)CC1 -2.81%, CC/C=C(\C(=O)N[C@@H]1C(=O)N2C(C(=O)OCOC(=O)C(C)(C)C)=C(COC(N)=O)CS[C@H]12)c1csc(N)n1, COc1cccc2ccc(CN3CCC4(CC3)c3ccccc3[C@@H](NC(=O)c3ccccc3)[C@@H]4O)nc12 8.45%, C=CC(C)(O)CCC=C(C)C (stereo unspecified) 6.67%, Cc1ccccc1 2.34%, Cc1cccc(C)c1NC(=O)CN1CCN(CCCC(c2ccc(F)cc2)c2ccc(F)cc2)CC1 0.0143% [at 75.8 µM], Cc1cccc(C2CN(C)CCc3c2cc(O)c(O)c3Cl)c1 (stereo unspecified) 14.2% [at 75.8 µM], COc1ccc(C(=O)N2CCC3(CCCN(c4ccc(-c5ccccc5)cc4)C3)CC2)cc1 -0.713%, Cc1c(C)c2c(c(C)c1O)CCC(C)(CCCC(C)CCCC(C)CCCC(C)C)O2 (stereo unspecified) -7.36%, CS(=O)(=O)Nc1cccc(-c2ccc3ncnc(N4CCNCC4)c3c2)c1 10.8%, COc1cc(C)c(Cc2cnc(N)nc2N)cc1OC -9.71%, COC(=O)N1CCC2(CCN(C(=O)Nc3cccc(C#N)c3)CC2)CC1 15.5%, CC(C)NC(=O)N1CC[C@@]2(CCCN(C(=O)c3cc(C(F)(F)F)cc(C(F)(F)F)c3)C2)C1 -6.21%, CC(=O)N1CCC[C@@]2(CCN(C(c3ccccc3)c3ccccc3)C2)C1 -7.28%, C[C@@H](C[C@H](N)C(=O)O)C(=O)O -10.1%, CC(C)(S)[C@H](N)C(=O)O -3.38%, O=C(C[C@H]1C(=O)N(Cc2ccccc2)C[C@@H]1Cc1ccccc1)Nc1ccccc1 -4.34%, Clc1cc(Cl)c(OCC#CI)cc1Cl 5.93%, O=C(O)/C=C(\CC(=O)O)C(=O)O, COc1cccc(Nc2ncc3nc(C)c(=O)n(CCC#N)c3n2)c1 -6.96%, Oc1cc(O)cc(/C=C/c2ccc(O)c(O)c2)c1, COc1ccc(-n2c(=O)cnc3cnc(Nc4ccccc4)nc32)cc1 12.5%, Cc1c(CN2CCOc3ccc(C(C)(O)COc4ccccc4)cc3C2)cnn1C (stereo unspecified) 12.1%, CCCCN1CC[C@H]2C=CC[C@@H](C(=O)NC3CCCCC3)[C@H]2C1=O -3.12%, CC1CCCC(C)N1NC(=O)c1ccc(Cl)c(S(N)(=O)=O)c1 (stereo unspecified), O=C(c1cccc(F)c1)N1CCC2(CCCN(Cc3ccncc3)C2)CC1 19%, O=c1cnc2cnc(N3CCNCC3)nc2n1CCc1ccccc1 18.9%, Cc1noc(C)c1C(=O)N1CCC2(CCCN(C(=O)NC(C)C)C2)CC1 14.4%, COc1cccc(-n2c(SC)nnc2C2CCN(Cc3cccc(OC)c3O)CC2)c1 15.9%, Cc1cccc(CNc2nc(-c3ccc(C(=O)N(C)C)cc3)nc3ccccc23)c1 6.51%, Nc1nnc(-c2cccc(Cl)c2Cl)c(N)n1, CN1CCc2cc3c(cc2[C@@H]1[C@@H]1C(=O)Oc2c1ccc1c2OCO1)OCO3 -0.347%, Cc1nc2ccccc2nc1/C=C/c1ccc(N(C)C)cc1 -14.8%, O=c1c(-c2cc(F)cc(F)c2)nc2cnc(N3CCNCC3)nc2n1Cc1ccc(F)cc1 -25.2%, O=c1c(-c2cccc(Cl)c2)nc2cncnc2n1Cc1ccccc1Cl -6.25%, CCc1noc(C)c1C(=O)N1CCOc2ccc(CN3CCN(c4ccccn4)CC3)cc2C1 1.03%, O=C(Nc1cccc(N2CCC(NCc3cnn(-c4cccc(F)c4)c3)CC2)c1)c1ccncc1 18.7%, C[N+]1(CC2COC(c3ccccc3)(C3CCCCC3)O2)CCCCC1 (stereo unspecified) 12.5%, Cc1c(C(=O)N(C)CC2CCCN(C)C2)cnn1-c1nccc(-c2ccco2)n1 (stereo unspecified) 10.4%, CC[C@]12CCCN3CCc4c(n(c5ccccc45)[C@@](O)(C(=O)OC)C1)[C@@H]32 11.2%, c1ccc2c(N3CCOCC3)nc(-c3ccoc3)nc2c1 8.27%, COCC(=O)Nc1cc(C(=O)N2CCc3sccc3C2)c2c(c1)nc(-c1ccncc1)n2C 17.4%, COC(=O)[C@@H]1CCCN1Cc1ccc2c(c1)CN(Cc1ccc3c(c1)CCCN3C)CCO2 -12.9%, CSc1ccc(/C=C2/C(C)=C(CC(=O)O)c3cc(F)ccc32)cc1 4.23%, Cc1cccc(CNC(=O)c2cnn(-c3nccc(-c4cc(C)sc4C)n3)c2C)n1 7.63%, COc1cccc(C(=O)N2CCCC(c3nc(SCCN4CCOCC4)ncc3C)C2)c1 (stereo unspecified) 5.54%, C=C[C@]1(C)C[C@@H](OC(=O)CSCCN(CC)CC)[C@]2(C)[C@H](C)CC[C@]3(CCC(=O)[C@H]32)[C@@H](C)[C@@H]1O 4.61%, COc1ccc(C(=O)N2CCC3(CCCN(c4cccc(-c5ccccc5)c4)C3)CC2)cc1 11.3%, CC(C)N(CCC(=O)c1ccc2ccccc2c1)Cc1ccccc1, CCOC(=O)c1ccc(C#Cc2ccc3c(c2)C(C)(C)CCS3)nc1 17.7%, CC(c1ccon1)N(C)C(=O)c1cnn(-c2ncc3c(n2)-c2ccccc2CC3)c1C1CC1 (stereo unspecified) -13.8%, CCC(C)(C)c1ccc(CC(C)CN2C[C@@H](C)O[C@@H](C)C2)cc1 (stereo partly specified) -5.7%, COc1cccc(CN2C(=O)NC(C)(C3CCN(Cc4cccc(O)c4)CC3)C2=O)c1OC (stereo unspecified) 16.3%, CC(C)Cc1cc(C(=O)NCC2Cc3cc(F)cc(-c4ccccn4)c3O2)no1 (stereo unspecified) 5.28%, Cc1cnc(CNC(=O)c2c3n(c(C)cc2=O)-c2ccccc2SC(c2ccsc2)C3)cn1 (stereo unspecified) 7.63%, CNC[C@@H]1CC[C@@H](N)[C@@H](O[C@H]2[C@H](O)[C@@H](O[C@H]3OC[C@](C)(O)[C@H](NC)[C@H]3O)[C@H](N)C[C@@H]2N)O1 29.7%, CN1CCN(c2nc(-c3ccoc3)nc3ccccc23)CC1 2.57%, COc1ccccc1C1CN(Cc2c(C)nc3sccn23)Cc2ccccc2O1 (stereo unspecified) 7.23%, CCOC(=O)c1cc(-c2ccccc2)nc2ccc(C)cc12 6.7%, Cc1csc[n+]1CCC1CCCCC1 7.35%, O=c1[nH]c(=O)n([C@H]2C[C@H](O)[C@@H](CO)O2)cc1/C=C/Br 6.24%, CN1CCN(c2ncc3nc(-c4cc(F)cc(F)c4)c(=O)n(C4CC4)c3n2)CC1 5.87%, COc1cccc(C(=O)O[C@H]2[C@H](Cc3ccccc3)NS(=O)(=O)[C@H]3C[C@@H]4C=C[C@]23O4)c1 12.4%, COc1cc(=O)n2c(c1C(=O)N(C)Cc1cscn1)CCN(Cc1ccc3c(c1)OCCO3)CC2 7.61%, CNC(=O)[C@@H]1C[C@H](NC2CCCCCCC2)CN1Cc1cccc(OC)c1OC 9.84%, Cc1cc(=O)c(C(=O)NCCCc2ccncc2)c2n1-c1ccccc1SC(c1cccs1)C2 (stereo unspecified) 1.95%, Cn1cccc1C(=O)N1CCC2(CCN(Cc3nccs3)CC2)CC1 12.9%, C=CC(=O)c1ccc(CCCCCC)cc1 41.7% [at 75.8 µM], COCCn1c(=O)c(-c2cccs2)nc2cnc(Nc3ccccc3)nc21 171%, Cc1nc2cnc(N(C)C)nc2n(CCC#N)c1=O 0.853%, Cc1ccc(N)cc1O 13.9% [at 320 µM], COc1ccc(NC(=O)N2CC[C@@]3(CCCN(C(=O)c4cccn4C)C3)C2)cc1 30.1%, Cc1cc(C)n(-c2ccc(C(=O)NCC3Cc4cc(-c5cnccn5)ccc4O3)cc2)n1 (stereo unspecified) -1.63%, COc1ccc2c(c1)OCC(Cc1ccc(OC)c(OC)c1)C2=O (stereo unspecified) -16.4%, N#CCCn1c(=O)c(-c2ccccc2)nc2cnc(Oc3ccccc3)nc21 8.97%, Cc1oc(-c2ccccc2NC(=O)C2CCC2)nc1CNC(=O)c1ccc2ccccc2c1 -11.4%, O=c1cc(O)cc(/C=C/c2ccc(O)c(O)c2)o1 11.1% [at 75.8 µM], Cc1cc(C(=O)Nc2cccc(-c3nc(CNC(=O)c4cnccn4)c(C)o3)c2)c(C)o1 12.6%, Clc1ccc(-c2nc3sccn3c2/C=N/OCc2ccc(Cl)c(Cl)c2)cc1, COc1ccc(C(=O)N2CCC3(CCCN(Cc4ccccc4)C3)CC2)cc1 1.37%
